# From the supplement of paper PMC8728848
# Some of the results follow.
# B1: E-Selectin (Homo sapiens), P16581 (protein)
# chain: MIASQFLSALTLVLLIKESGAWSYNTSTEAMTYDEASAYCQQRYTHLVAIQNKEEIEYLNSILSYSPSYYWIGIRKVNNVWVWVGTQKPLTEEAKNWAPGEPNNRQKDEDCVEIYIKREKDVGMWNDERCSKKKLALCYTAACTNTSCSGHGECVETINNYTCKCDPGFSGLKCEQIVNCTALESPEHGSLVCSHPLGNFSYNSSCSISCDRGYLPSSMETMQCMSSGEWSAPIPACNVVECDAVTNPANGFVECFQNPGSFPWNTTCTFDCEEGFELMGAQSLQCTSSGNWDNEKPTCKAVTCRAVRQPQNGSVRCSHSPAGEFTFKSSCNFTCEEGFMLQGPAQVECTTQGQWTQQIPVCEAFQCTALSNPERGYMNCLPSASGSFRYGSSCEFSCEQGFVLKGSKRLQCGPTGEWDNEKPTCEAVRCDAVHQPPKGLVRCAHSPIGEFTYKSSCAFSCEEGFELHGSTQLECTSQGQWTEEVPSCQVVKCSSLAVPGKINMSCSGEPVFGTVCKFACPEGWTLNGSAARTCGATGHWSGLLPTCEAPTESNIPLVAGLSAAGLSLLTLAPFLLWLRKCLRKAKKFVPASSCQSLESDGSYQKPSYIL
# How the values were obtained:
# Assay in all cases: glycan array binding signal (z-score within array); higher = stronger binding
# Settings in all cases: glycan notation: IUPAC condensed, linker removed
# [1] = target: Gal(b1-4)GlcNAc(b1-3)Gal(b1-4)GlcNAc
# Method in brief: (§1)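 The binding signal is a Z-score computed within each array. Data were drawn from 3228 arrays in the Consortium for Functional Glycomics database, restricted to those with a known protein sequence. Scores were averaged over arrays of the same protein sequence at different concentrations or buffers, and over linkers, and negative values can be taken as non-binding.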
# [2] = target: Gal(b1-4)GlcNAc(b1-3)Gal(b1-4)GlcNAc(b1-3)Gal(b1-4)GlcNAc
# Method in brief: as §1
# [3] = target: Gal(b1-4)GlcNAc(b1-3)Gal(b1-4)[Fuc(a1-3)]GlcNAc(b1-3)Gal(b1-4)[Fuc(a1-3)]GlcNAc
# Method in brief: as §1
# [4] = target: Gal(b1-4)GlcNAc(b1-3)GalNAc
# Method in brief: as §1
# [5] = target: Gal(b1-4)GlcNAc(b1-3)[Gal(b1-4)GlcNAc(b1-6)]Gal(b1-4)GlcNAc
# Method in brief: as §1
# [6] = target: Gal(b1-4)GlcNAc(b1-3)[Gal(b1-4)GlcNAc(b1-6)]GalNAc
# Method in brief: as §1
# [7] = target: Gal(b1-4)GlcNAc(b1-3)[GlcNAc(b1-6)]Gal(b1-4)GlcNAc
# Method in brief: as §1
# [8] = target: Gal(b1-4)GlcNAc(b1-6)Gal(b1-4)GlcNAc
# Method in brief: as §1
# [9] = target: Gal(b1-4)GlcNAc(b1-6)Gal(b1-4)GlcNAc(b1-6)GalNAc
# Method in brief: as §1
# [10] = target: Gal(b1-4)GlcNAc(b1-6)GalNAc
# Method in brief: as §1
# [11] = target: Gal(b1-4)GlcNAc(b1-6)[Gal(b1-3)]GalNAc
# Method in brief: as §1
# [12] = target: Gal3S(b1-3)GalNAc
# Method in brief: as §1
# [13] = target: Gal3S(b1-3)GlcNAc
# Method in brief: as §1
# [14] = target: Gal3S(b1-3)[Fuc(a1-4)]GlcNAc
# Method in brief: as §1
# [15] = target: Gal3S(b1-4)Glc
# Method in brief: as §1
# [16] = target: Gal3S(b1-4)Glc6S
# Method in brief: as §1
# [17] = target: Gal3S(b1-4)GlcNAc
# Method in brief: as §1
# [18] = target: Gal3S(b1-4)GlcNAc6S
# Method in brief: as §1
# [19] = target: Gal3S(b1-4)[Fuc(a1-3)]Glc
# Method in brief: as §1
# [20] = target: Gal3S4S(b1-4)GlcNAc
# Method in brief: as §1
# [21] = target: Gal3S6S(b1-4)GlcNAc
# Method in brief: as §1
# [22] = target: Gal3S6S(b1-4)GlcNAc6S
# Method in brief: as §1
# [23] = target: Gal4S(b1-4)GlcNAc
# Method in brief: as §1
# [24] = target: Gal4S6S(b1-4)GlcNAc
# Method in brief: as §1
# [25] = target: Gal6S(b1-4)Glc
# Method in brief: as §1
# [26] = target: Gal6S(b1-4)Glc6S
# Method in brief: as §1
# [27] = target: Gal6S(b1-4)GlcNAc
# Method in brief: as §1
# [28] = target: Gal6S(b1-4)GlcNAc6S
# Method in brief: as §1
# [29] = target: GalNAc(a1-3)Gal
# Method in brief: as §1
# [30] = target: GalNAc(a1-3)GalNAc
# Method in brief: as §1
# [31] = target: GalNAc(b1-3)Gal
# Method in brief: as §1
# [32] = target: GalNAc(b1-3)Gal(a1-4)Gal(b1-4)GlcNAc
# Method in brief: as §1
# [33] = target: GalNAc(b1-3)GalNAc
# Method in brief: as §1
# [34] = target: GalNAc(b1-4)GlcNAc
# Method in brief: as §1
# [35] = target: Glc(a1-4)Glc
# Method in brief: as §1
# [36] = target: Glc(a1-6)Glc(a1-6)Glc
# Method in brief: as §1
# [37] = target: Glc(b1-4)Glc
# Method in brief: as §1
# [38] = target: Glc(b1-6)Glc
# Method in brief: as §1
# [39] = target: GlcA(b1-3)Gal
# Method in brief: as §1
# [40] = target: GlcA(b1-3)GlcNAc
# Method in brief: as §1
# [41] = target: GlcA(b1-6)Gal
# Method in brief: as §1
# [42] = target: GlcNAc(a1-3)Gal(b1-4)GlcNAc
# Method in brief: as §1
# [43] = target: GlcNAc(a1-6)Gal(b1-4)GlcNAc
# Method in brief: as §1
# [44] = target: GlcNAc(b1-2)Gal(b1-3)GalNAc
# Method in brief: as §1
# [45] = target: GlcNAc(b1-2)Man(a1-3)[GlcNAc(b1-2)Man(a1-6)]Man(b1-4)GlcNAc(b1-4)GlcNAc
# Method in brief: as §1
# [46] = target: GlcNAc(b1-3)Gal
# Method in brief: as §1
# [47] = target: GlcNAc(b1-3)Gal(b1-3)GalNAc
# Method in brief: as §1
# [48] = target: GlcNAc(b1-3)Gal(b1-4)Glc
# Method in brief: as §1
# [49] = target: GlcNAc(b1-3)Gal(b1-4)GlcNAc
# Method in brief: as §1
# [50] = target: GlcNAc(b1-3)Gal(b1-4)GlcNAc(b1-3)Gal(b1-4)GlcNAc
# Method in brief: as §1
# [51] = target: GlcNAc(b1-3)GalNAc
# Method in brief: as §1
# [52] = target: GlcNAc(b1-3)Man
# Method in brief: as §1
# [53] = target: GlcNAc(b1-3)[GlcNAc(b1-4)][GlcNAc(b1-6)]GlcNAc
# Method in brief: as §1
# [54] = target: GlcNAc(b1-3)[GlcNAc(b1-6)]Gal(b1-4)GlcNAc
# Method in brief: as §1
# [55] = target: GlcNAc(b1-3)[GlcNAc(b1-6)]GalNAc
# Method in brief: as §1
# [56] = target: GlcNAc(b1-3)[GlcNAc(b1-6)]GlcNAc(b1-4)GlcNAc
# Method in brief: as §1
# [57] = target: GlcNAc(b1-4)Gal(b1-4)GlcNAc
# Method in brief: as §1
# [58] = target: GlcNAc(b1-4)GlcNAc
# Method in brief: as §1
# [59] = target: GlcNAc(b1-4)GlcNAc(b1-4)GlcNAc
# Method in brief: as §1
# [60] = target: GlcNAc(b1-4)GlcNAc(b1-4)GlcNAc(b1-4)GlcNAc(b1-4)GlcNAc
# Method in brief: as §1
binder,measurement,setting,value
B1,glycan array binding signal (z-score),[1],-0.119
same,glycan array binding signal (z-score),[2],-0.072
same,glycan array binding signal (z-score),[3],-0.22
same,glycan array binding signal (z-score),[4],-0.331
same,glycan array binding signal (z-score),[5],-0.176
same,glycan array binding signal (z-score),[6],-0.14
same,glycan array binding signal (z-score),[7],-0.027
same,glycan array binding signal (z-score),[8],-0.057
same,glycan array binding signal (z-score),[9],-0.151
same,glycan array binding signal (z-score),[10],-0.213
same,glycan array binding signal (z-score),[11],-0.218
same,glycan array binding signal (z-score),[12],-0.045
same,glycan array binding signal (z-score),[13],0.086
same,glycan array binding signal (z-score),[14],1.21
same,glycan array binding signal (z-score),[15],-0.07
same,glycan array binding signal (z-score),[16],0.304
same,glycan array binding signal (z-score),[17],0.18
same,glycan array binding signal (z-score),[18],-0.005
same,glycan array binding signal (z-score),[19],0.178
same,glycan array binding signal (z-score),[20],0.606
same,glycan array binding signal (z-score),[21],0.324
same,glycan array binding signal (z-score),[22],0.727
same,glycan array binding signal (z-score),[23],0.303
same,glycan array binding signal (z-score),[24],0.276
same,glycan array binding signal (z-score),[25],-0.044
same,glycan array binding signal (z-score),[26],0.338
same,glycan array binding signal (z-score),[27],0.073
same,glycan array binding signal (z-score),[28],0.433
same,glycan array binding signal (z-score),[29],-0.247
same,glycan array binding signal (z-score),[30],-0.108
same,glycan array binding signal (z-score),[31],-0.199
same,glycan array binding signal (z-score),[32],-0.22
same,glycan array binding signal (z-score),[33],-0.269
same,glycan array binding signal (z-score),[34],-0.214
same,glycan array binding signal (z-score),[35],-0.137
same,glycan array binding signal (z-score),[36],-0.281
same,glycan array binding signal (z-score),[37],-0.263
same,glycan array binding signal (z-score),[38],-0.134
same,glycan array binding signal (z-score),[39],-0.144
same,glycan array binding signal (z-score),[40],-0.029
same,glycan array binding signal (z-score),[41],-0.104
same,glycan array binding signal (z-score),[42],-0.261
same,glycan array binding signal (z-score),[43],-0.194
same,glycan array binding signal (z-score),[44],-0.209
same,glycan array binding signal (z-score),[45],-0.172
same,glycan array binding signal (z-score),[46],-0.024
same,glycan array binding signal (z-score),[47],-0.311
same,glycan array binding signal (z-score),[48],-0.195
same,glycan array binding signal (z-score),[49],-0.142
same,glycan array binding signal (z-score),[50],-0.007
same,glycan array binding signal (z-score),[51],-0.266
same,glycan array binding signal (z-score),[52],-0.273
same,glycan array binding signal (z-score),[53],-0.261
same,glycan array binding signal (z-score),[54],-0.152
same,glycan array binding signal (z-score),[55],-0.221
same,glycan array binding signal (z-score),[56],-0.105
same,glycan array binding signal (z-score),[57],-0.19
same,glycan array binding signal (z-score),[58],-0.169
same,glycan array binding signal (z-score),[59],-0.067
same,glycan array binding signal (z-score),[60],-0.047
